In PubChem BioAssay AID1745853 (National Center for Advancing Translational Sciences (NCATS), 2022):
“And” between values parts separate entries of the source, which are not always exact repeats. Equal values may be shown once. The list shows a part of the results. Shown are side measurements of this screen, not its main read-out; they come without a call.

How the values were obtained:
Assay in all cases: Primary Screen for Target Class Profiling of Small Molecule Inhibitors of Methyltransferases
[1] = target: Glycine N-methyltransferase (Homo sapiens) (UniProt Q14749); details: purified enzyme, MTase-Glo SAH luminescence; measured here: GNMT inhibition; at 40 µM; stronger effect = lower value
Outline: (§1)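 Each enzyme was reacted with SAM and its substrate, with compounds tested once at 40 uM; SAH formed was read by MTase-Glo luminescence.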

[2] = target: Guanidinoacetate N-methyltransferase (Homo sapiens) (UniProt Q14353); details: purified enzyme, MTase-Glo SAH luminescence; measured here: GAMT inhibition; at 40 µM; stronger effect = lower value
Outline: as §1

[3] = target: Histamine N-methyltransferase (Homo sapiens) (UniProt P50135); details: purified enzyme, MTase-Glo SAH luminescence; measured here: HNMT inhibition; at 40 µM; stronger effect = lower value
Outline: as §1

[4] = target: Nicotinamide N-methyltransferase (Homo sapiens) (UniProt P40261); details: purified enzyme, MTase-Glo SAH luminescence; measured here: NNMT inhibition; at 40 µM; stronger effect = lower value
Outline: as §1

[5] = target: Phenylethanolamine N-methyltransferase (Homo sapiens) (UniProt P11086); details: purified enzyme, MTase-Glo SAH luminescence; measured here: PNMT inhibition; at 40 µM; stronger effect = lower value
Outline: as §1
On the % scale 0 is the no-effect control and ±100 the full control effect.

Structure (SMILES)	activity change, negative = inhibition [1] [%]	activity change, negative = inhibition [2]	activity change, negative = inhibition [3] [%]	activity change, negative = inhibition [4]	activity change, negative = inhibition [5]
O=C(NCCc1nc2c(s1)CCCC2)C1NCCc2[nH]cnc21 (configuration not stated)	-2.26	-8.89%	-3.99	-10.9%	-20.4%
Brc1c(Br)c(Br)c2n[nH]nc2c1Br	-86.9	-58.8% and -58%	-71.6	-69.9% and -74.7%	-78.2% and -72.4%
Cc1cc2c(cc3n2CC(C)(C(=O)NC2CCCCCC2)N(Cc2ccccc2Cl)C3=O)o1 (configuration not stated)	-7.65	-1.96%	-17	-12.5%	-14.4%
Cc1n[nH]c(C)c1C(N)C(=O)N(Cc1cccnc1)Cc1cccnc1 (configuration not stated)	-0.662	0.54%	0.152	3.33%	-25%
CC(C)[C@H](N)C(=O)OCCOCn1cnc2c(=O)[nH]c(N)nc21	–	-10.2%	–	-18.2%	-9.07%
CN(NC(=O)CC(=O)NN(C)C(=S)c1ccccc1)C(=S)c1ccccc1	2.9	4.76%	1.02	-17.1%	-11.6%
COCCCN1C(=O)c2cc(-c3ccccc3)nn2CC1(C)C(=O)NCc1ccccc1OC (configuration not stated)	2.8	2.42%	6.32	5.06%	2.09%
Nc1nc2c(nc(Br)n2[C@@H]2O[C@@H]3COP(=O)(O)O[C@H]3[C@H]2O)c(=O)[nH]1	-0.38	-0.569%	6.5	-9.49%	-2.82%
CCC(C)NC(=O)c1ccc2c(=O)n(C(C)C)c3nn(CC(=O)NCc4ccc(C)cc4)c(=O)n3c2c1 (configuration not stated)	5.07	0.068%	1.52	3.38%	4.08%
COc1ccc(Cn2cnc3cccnc32)cc1	-7.32	-8.39%	-2.81	-16.2%	-8.8%
CN(C)c1ccc(C2NC(C(=O)O)Cc3c2[nH]c2ccccc32)cc1 (configuration not stated)	0.9	3.57%	-4.83	-3.22%	-4.54%
CN1CCN(c2nc(-c3ccc(C(=O)NC4(C(=O)NCC#N)CCCCC4)cc3)cs2)CC1	6.11	0.396%	0.439	-12.2%	-5.86%
Clc1ccc(-c2csc(NN=C3CCCC3)n2)cc1	-59.4	–	8.2	-14%	-4.7%
CC1(C(=O)NC2CCCCCC2)Cn2c(cc3occc32)C(=O)N1Cc1ccccc1F (configuration not stated)	0.483	2.33%	6.44	-7.15%	-1.78%
CN1C[C@H](NC(=O)c2cnccn2)CCC[C@@H](C(=O)N(C)Cc2cccnc2)CC1=O	-1.81	-4.46%	-1.46	-1.55%	-2.08%
COc1cccc(Cn2nc3n(CC(C)C)c(=O)c4ccc(C(=O)NC5CCCCC5)cc4n3c2=O)c1	5.24	4.48%	4.23	-0.52%	-0.384%
Cc1ccc(-c2nnc([C@H]3CCN(C(=O)COc4ccccc4)C3)o2)cc1	-4.43	-2.81%	-3.22	-11.5%	-22%
CN(CC(=O)NCCC1=CCCCC1)S(=O)(=O)c1ccc2[nH]c3c(c2c1)CCCC3	-7.99	-1.88%	-8.46	-8.98%	-6.74%
O=S(=O)(c1cccc(-c2nc(-c3ccccc3)no2)c1)N1CCCc2ccccc21	-7.01	2.23%	-3.62	-4.1%	-3.56%

Structure (SMILES)	activity change, negative = inhibition [1] [%]	activity change, negative = inhibition [2]	activity change, negative = inhibition [3] [%]	activity change, negative = inhibition [4]	activity change, negative = inhibition [5]
COc1ccc(C2(CNC(=O)c3ccc(NC(=O)c4ccco4)cc3)CCOCC2)cc1	-1.59	-1.43%	5.42	-12.4%	-2.39%
CC(C)NC(=O)c1ccc2c(=O)n(C(C)C)c3nn(CC(=O)NCc4ccccc4)c(=O)n3c2c1	-1.21	3.93%	1.38	-5.6%	3.31%
CC(=O)OC1CC2C(C)(C)C(=O)C=CC2(C)C2CC(=O)C3=C(CCC3C3=CC(O)OC3=O)C12C (configuration not stated)	0	4.78%	4.2	-12.1%	3.07%
CCOc1cccc(CN2CCCC(CNC(=O)c3cccc(OC)c3OC)C2)c1 (configuration not stated)	-4.38	-4.46%	-2.13	-7.57%	-6.81%
CCOc1ccc(CN2C(=O)c3nc4ccccc4n3CC2(C)C(=O)NC2CCCCC2C)cc1 (configuration not stated)	-7.88	4.28%	-3.19	-7.7%	-2.66%
O=S(=O)(c1ccccc1)c1cnc2c(N3CCNCC3)cccc2c1	-1.99	-6.63%	-6.33	-28.4%	-21.1%
C=CCn1c(=O)c2ccc(C(=O)NCC(C)C)cc2n2c(=O)n(CC(=O)Nc3ccccc3C)nc12	-3.86	-0.757%	-4.04	-17.4%	-9.07%
O=C(NC1CCN(Cc2cccc(-c3cccs3)c2)CC1)c1cccc(Cl)c1	-2.65	0.739%	-12.7	-4.84%	-6.26%
CCc1cc2c(cc3n2CC(C)(C(=O)NC2CCCCCC2)N(Cc2ccccc2C)C3=O)s1 (configuration not stated)	-1.16	4.2%	0.829	4%	-5.35%
COc1ccc(-c2ccccc2NC(=O)C2CCCN(CC=C(C)C)C2)cc1 (configuration not stated)	-1.91	0.121%	-2.57	-8.99%	11.3%
COC(=O)c1ncn2c1C(=O)N(Cc1ccccc1Cl)C(C)(C(=O)NCc1ccccc1OC)C2 (configuration not stated)	0.195	0.017%	-0.525	2%	3.06%
NC(=O)N1CCC(CC(=O)N2CCC(C3c4ncc(Br)cc4CCc4cc(Cl)cc(Br)c43)CC2)CC1 (configuration not stated)	-19.8	7.71%	-5.39	-73.9%	1.66%
CCCCOc1ccccc1-c1cc2n(n1)CC(C)(C(=O)NC1CCCCCC1)N(CCOC)C2=O (configuration not stated)	-0.278	5.32%	-0.736	-2.23%	0.345%
CCc1cccc(NC(=O)Cn2nc3n(CCC(C)C)c(=O)c4ccc(C(=O)NC(C)C)cc4n3c2=O)c1	0.628	5.91%	-2.93	1.54%	2.93%
CCOC(=O)CNC(=O)N1CCn2cccc2C1C(C)C (configuration not stated)	6.26	1.21%	2.67	3.33%	6.82%
O=C(CCc1nnc2n(CCc3ccccc3)c(=O)c3ccccc3n12)NCc1ccc2c(c1)OCO2	-0.129	4.33%	4.43	1.39%	-6.36%
CC1(C)C(=O)CCC2(C)C1C(O)C=C1COC(=O)C12O (configuration not stated)	1.46	-3.51%	11.4	-15.3%	-11.7%
COc1ccc(N2C(=O)c3cc4occc4n3CC2(C)C(=O)NC2CCCCCC2)cc1Cl (configuration not stated)	-3.33	3.75%	-0.227	-1.23%	-7.87%
CN1C(=O)c2cc(C(=O)NCCc3ccccc3)nn2CC1(C)C(=O)NC1CCCC1 (configuration not stated)	8.59	0%	4.59	9.63%	1.9%

Structure (SMILES)	activity change, negative = inhibition [1] [%]	activity change, negative = inhibition [2]	activity change, negative = inhibition [3] [%]	activity change, negative = inhibition [4]	activity change, negative = inhibition [5]
O=C(CCc1nnc2n(Cc3ccc(Cl)cc3)c(=O)c3ccccc3n12)NCCCN1CCCC1=O	-6.84	3.6%	1.57	1.34%	-0.753%
Cc1cnc(N2CC[C@](C)(O)[C@@H](O)C2)nc1N(C)C	-0.496	-0.127%	-0.71	-4.76%	-1.35%
C=CCN(C)C(=O)C[C@@H]1c2nc(NC(=O)c3ccco3)sc2C[C@@H]2[C@](C)(CO)[C@H](O)CC[C@]21C	-6.69	-4.11%	-4.55	-8%	1.02%
COC(=O)c1cc2n(n1)CC(C)(C(=O)NC1CCCCCC1)N(c1ccc(C)c(Cl)c1)C2=O (configuration not stated)	-8.8	-7.19%	-13.5	-6.89%	-7.62%
CCCn1c(=O)c2ccc(Cl)cc2n2c(SCC(=O)Nc3ccc(C)cc3Cl)nnc12	-3.64	-4.38%	8.4	-9.86%	-2.48%
CCOc1cc(C(C)(C)C)ccc1C1=NC(C)(c2ccc(Cl)cc2)C(C)(c2ccc(Cl)cc2)N1C(=O)N1CCN(CCCS(C)(=O)=O)CC1 (configuration not stated)	1.35	1.64%	-3.85	-33%	-6.04%
COc1ccc(NS(=O)(=O)c2cc3[nH]c(=O)[nH]c3cc2C)cc1	-3.86	1.23%	0.963	1.69%	-17.2%
COc1ccc(S(=O)(=O)c2nnn3c2nc(Nc2ccc(C)cc2)c2ccccc23)cc1	-7.61	0.299%	-1.4	1.27%	-7.16%
CCN(CC)CCOc1ccc(/C(=C(\Cl)c2ccccc2)c2ccccc2)cc1	1.93	7.49%	-19.5	-13.5%	2.14%
CCc1cccc(N2C(=O)c3cc(-c4ccccc4)nn3CC2(C)C(=O)NCc2ccccc2)c1 (configuration not stated)	1.6	8.23%	0.955	2.41%	-3.19%
Cc1noc(C)c1S(=O)(=O)N1CCC2(CC1)CC1C(=O)NCCN1C2 (configuration not stated)	-3.84	-1.33%	-2.32	-5.26%	-0.605%
C[C@@H]1O[C@@H](O[C@@H]2[C@@H](O[C@@H]3O[C@@H](C)[C@H](O[C@@H]4OC[C@H](O)[C@H](O[C@@H]5OC[C@@H](O)[C@H](O)[C@H]5O)[C@H]4O)[C@@H](O[C@@H]4OC[C@](O)(CO)[C@H]4O)[C@H]3O)[C@H](OC(=O)[C@]34CCC(C)(C)C[C@H]3C3=CCC5[C@@]6(C)C[C@H](O)[C@H](O[C@@H]7O[C@H](CO[C@@H]8OC[C@H](O)[C@H](O)[C@H]8O)[C@@H](O)[C@H](O)[C@H]7O)C(C)(C)C6CC[C@@]5(C)[C@]3(C)C[C@H]4O)OC[C@H]2O)[C@H](O)[C@H](O)[C@H]1O (some centres not stated)	2.94	16.9%	5.68	6.03%	11.6%
CCCCNC(=O)[C@H]1CCC[C@H]1NC(=O)c1ccncc1	0.325	0.932%	2.1	-7.08%	11.7%
COc1ccc(C(=O)Cn2nc3n(Cc4ccc(C)cc4)c(=O)c4ccccc4n3c2=O)cc1OC	5.21	0.874%	3.93	9.12%	7.95%
COc1ccc(CNC(=O)C2CCN(Cc3ccccc3-c3ccccc3F)CC2)cc1	-6	17.1%	-26.6	-10.4%	-1.79%
CC(C)OCCCNC(=O)C1(C)Cn2c(cc3ccccc32)C(=O)N1Cc1cccc(F)c1 (configuration not stated)	4	0.036%	5.01	5.5%	-0.044%
COc1ccc(-c2cc3n(n2)CC(C)(C(=O)NCc2ccccc2)N(c2cccc(OC)c2)C3=O)cc1 (configuration not stated)	4.42	0%	5.59	9.87%	2.74%
Cn1cccc1-c1noc(C2CCN(C(=O)COc3ccc(F)cc3)CC2)n1	-5.12	-6.74%	-3.81	-10.7%	-5.5%
Cn1cc(CN2CCOC[C@H](Oc3ccc(S(C)(=O)=O)cc3)C2)c2ccccc21	-4.09	-6.67%	-2.22	-11.1%	-27.9%
